This note sets out measurements from patent US20220267443A1 (AGENUS, published 2022).

Positions count from the first letter of the chain named.

Assay [1] has as its target T1, cynomolgus CTLA-4 in activated cynomolgus T cells (cynomolgus, UniProt P16410 36-223 (human entry)).
T1 construct: also called cynomolgus (Macaca fascicularis) CTLA-4
Description: flow cytometry, intracellular staining of activated cynomolgus CD8+ T cells. Here is the method:
The binding characteristics of the antibody AGEN1884 to cynomolgus (Macaca fascicularis) CTLA-4 was analyzed by a flow cytometry analysis. Cynomolgus PBMCs (Biomedical Primate Research Centre, Netherlands) isolated via ficoll gradient were activated using plate-bound 8 μg/ml anti-CD3 (BD, 557052) and 0.1 μg/ml anti-CD28 antibodies (eBioscience, Cat. 16-0289-85) in the presence of 50 U/ml IL-2 (BioLegend, 589106) for 3 days in RPMI-1640 media supplemented with 10% fetal bovine serum, 10 mM HEPES and 1× Pen/Strep-Glutamine at 37° C. and 5% CO₂. Following activation, the cells were incubated with an anti-CD8a antibody (eBioscience, 9043-0087-120) diluted 1:100 in FACS buffer (PBS with 2% FBS) for 30 minutes at 4° C. The cells were then washed with FACS buffer twice and applied to the Cytofix/Cytoperm procedure of the BD Bioscience Kit (51-2090KZ) according to the manufacturer's protocol. Serial dilutions of 1:3 from 9 to 0.037 μg/ml of AGEN1884, a reference anti-CTLA-4 IgG₁ antibody, and an IgG₁ isotype control were applied to the cells. The samples were suspended in 200 μl of FACS buffer and analyzed using the FACS Diva flow cytometer (BD Biosciences).

The target in assay [2] is T2, recombinant cynomolgus CTLA-4-Fc (Sino Biological, #90213-C02H) (cynomolgus, UniProt P16410 36-161 (human entry)).
T2 construct: Bought protein; also called recombinant cynomolgus (rc) CTLA-4; not shown: Fc part of the bought fusion protein
Description: suspension array (Luminex) selectivity assay, antigen coupled to microspheres. As for the experimental part:
(§1) The selectivity of AGEN1884 for CTLA-4 was assessed against other members of the immunoglobulin superfamily using suspension array technology as a multiplex assay. A number of immunoglobulin superfamily members were chemically coupled to Luminex® microspheres using standard NHS-ester chemistry. Purified materials of AGEN1884, a reference anti-CTLA-4 IgG₁ antibody, and an IgG₁ isotype control were diluted in assay buffer (Roche 11112589001) to 10 ng/ml, 100 ng/ml, and 1000 ng/ml. Briefly, 25 μl of each dilution was incubated in the dark (20° C., 650 rpm) with 1500 Luminex® microspheres in 5 μl assay buffer for 1 hour in 96 half-well filter plates (Millipore, MABVN1250). Luminex® microspheres were coupled with recombinant human CTLA-4-Fc (R&D Systems, #7268-CT), recombinant cynomolgus CTLA-4-Fc (Sino Biological, #90213-C02H), rhCD28-Fc (R&D, #342-CD-200), rhICOS-Fc (R&D, #169-CS-050), rhBTLA-Fc (Sino Biological, #11896-H02H), rhPD-1-Fc (R&D Systems, #1086-PD), or recombinant cynomolgus PD-1-Fc (produced in-house) via amine coupling with the COOH bead surface. Standard curves were generated using duplicates of 25 μl of a human IgG₁ standard (Sigma, 15154) with 1:3 dilution series (0.08-540 ng/ml). Detection was carried out using 60 μl of goat anti-human IgG F(ab)₂ labeled with R-PE (2.5 μg/ml; JIR 109-116-098, AbDSerotec Rapid RPE Antibody Conjugation Kit, LNK022RPE) and another hour of incubation time (20° C., 650 rpm). Plates were analyzed using a Luminex® 200 system (Millipore). A total of 100 beads were counted per well in a 48 μl sample volume. PE MFI values were used to determine specific or nonspecific binding to the recombinant proteins mentioned above.

The target of assay [3] is T3, rhBTLA-Fc (Sino Biological, #11896-H02H) (human, UniProt Q7Z6A9 31-157).
T3 construct: Bought protein; also called recombinant human BTLA; not shown: Fc part of the bought fusion protein
T3 sequence: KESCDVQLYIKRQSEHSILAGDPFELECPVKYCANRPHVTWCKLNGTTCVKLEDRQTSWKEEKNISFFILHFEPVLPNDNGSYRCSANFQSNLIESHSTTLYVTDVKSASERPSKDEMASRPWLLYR
The assay is described as above. As for the experimental part:
as §1

In assay [4] the target is T4, rhICOS-Fc (R&D, #169-CS-050) (human, UniProt Q9Y6W8 21-141).
T4 construct: Bought protein; also called recombinant human ICOS; not shown: Fc part of the bought fusion protein
T4 sequence: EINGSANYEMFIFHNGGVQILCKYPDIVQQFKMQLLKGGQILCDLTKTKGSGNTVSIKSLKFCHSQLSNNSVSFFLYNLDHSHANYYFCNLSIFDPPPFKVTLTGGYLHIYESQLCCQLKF
Described as above. As for the experimental part: as §1

For assay [5], the target named is T5, rhCD28-Fc (R&D, #342-CD-200) (human, UniProt P10747 19-152).
T5 construct: Bought protein; also called recombinant human CD28; not shown: Fc part of the bought fusion protein
Described as above. Here is the method:
as §1

In assay [6] the target is T6, rhPD-1-Fc (R&D Systems, #1086-PD) (human, UniProt Q15116 partial chain).
T6 construct: Bought protein; also called recombinant human PD-1; not shown: Fc part of the bought fusion protein
The assay is described as above. Here is the method:
as §1

The target in assay [7] is T7, rat CTLA-4 in PHA-stimulated CD4+ rat T cells (rat, UniProt P09793 36-223 (mouse entry)).
T7 construct: Cells were permeabilised before staining
T7 chain: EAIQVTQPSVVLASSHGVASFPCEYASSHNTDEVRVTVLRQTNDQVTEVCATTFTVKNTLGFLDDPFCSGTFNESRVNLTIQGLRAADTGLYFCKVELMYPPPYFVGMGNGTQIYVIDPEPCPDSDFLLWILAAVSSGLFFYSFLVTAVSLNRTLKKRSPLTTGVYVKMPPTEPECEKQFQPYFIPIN
Kind of assay: flow cytometry, Pacific Blue labeled antibody on permeabilised PHA-stimulated CD4+ T cells. As for the experimental part: (§2) Further, peripheral blood mononuclear cells (PBMCs) from human, cynomolgus monkey (Indochinese), rat, or mouse were aliquoted into wells of a 96-well round bottom tissue culture plate (1×10⁵ cells/well) and stimulated for 4 days in RPMI-1640 supplemented with 10% fetal bovine serum, 15 mM HEPES, 100 IU/ml penicillin, […] streptomycin, 2 mM L-glutamine, 100 IU/ml IL-2 (Peprotech), and 1 μg/ml phytohemagglutinin (PHA) (Roche) at 37° C. and 5% CO₂. After stimulation, cells were washed and 5% heat-inactivated human AB serum (Sigma-Aldrich) was added to block Fc receptors and prevent non-specific binding of antibodies. Cells were washed again and re-suspended in 100 μl of a diluted APC-conjugated anti-CD4 antibody (clone OKT4, GK15, or W3/25; Biolegend). After incubating for 45 minutes in the dark, cells were washed three times and permeabilized using a FoxP3/Transcription Factor Staining Buffer Set (eBioscience) following the manufacturer's instructions. After permeabilization, cells were incubated with serial dilutions of fluorescently labeled (Pacific Blue™) AGEN1884w or an isotype control antibody ranging from 0.00003 μg/ml to 10 μg/ml for 45 minutes at 4° C. in the dark. The cells were washed twice before flow cytometric analysis using a Becton Dickinson LSRFortessa™. Data were analyzed using FlowJo software (Version 10).
On the technique in general: A flow cytometer gives signals particle by particle.

Assay [8] concerns the target T8, mouse CTLA-4 in PHA-stimulated CD4+ mouse T cells (mouse, UniProt P09793 36-223).
T8 construct: Cells were permeabilised before staining
The description is as above. As for the experimental part:
as §2

In assay [9] the target is T1, cynomolgus CTLA-4 in activated …. The assay is described as above. Here is the method: as §2

T5 sequence (P10747 19-152 limits assumed): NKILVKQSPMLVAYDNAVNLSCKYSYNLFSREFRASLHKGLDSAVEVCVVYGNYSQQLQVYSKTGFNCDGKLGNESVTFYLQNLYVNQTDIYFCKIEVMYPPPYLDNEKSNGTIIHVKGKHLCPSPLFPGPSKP
T6 sequence (Q15116 25-167 limits assumed): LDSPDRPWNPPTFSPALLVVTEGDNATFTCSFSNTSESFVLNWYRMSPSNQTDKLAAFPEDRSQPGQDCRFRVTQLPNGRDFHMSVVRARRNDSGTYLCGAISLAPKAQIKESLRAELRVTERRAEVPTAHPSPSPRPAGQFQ

B1: AGEN1884 (antibody, human IgG1)
heavy: EVQLVESGGGLVKPGGSLRLSCAASGFTFSSYSMNWVRQAPGKGLEWVSSISSSSSYIYYADSVKGRFTISRDNAKNSLYLQMNSLRAEDTAVYYCARVGLMGPFDIWGQGTMVTVSSASTKGPSVFPLAPSSKSTSGGTAALGCLVKDYFPEPVTVSWNSGALTSGVHTFPAVLQSSGLYSLSSVVTVPSSSLGTQTYICNVNHKPSNTKVDKRV[sequence of human IgG1 Fc omitted]
light: EIVLTQSPGTLSLSPGERATLSCRASQSVSRYLGWYQQKPGQAPRLLIYGASTRATGIPDRFSGSGSGTDFTLTITRLEPEDFAVYYCQQYGSSPWTFGQGTKVEIKRSVAAPSVFIFPPSDEQLKSGTASVVCLLNNFYPREAKVQWKVDNALQSGNSQESVTEQDSKDSTYSLSSTLTLSKADYEKHKVYACEVTHQGLSSPVTKSFNRGEC
notes: Human IgG1; also called anti-CTLA-4 antibody AGEN1884
Take B1: the binding result in [1] was “binds”; in [2], “binds”; in [3] it was “no binding (tested: 10 ng/ml, 100 ng/ml, and 1000 ng/ml)”; in [4], “no binding (tested: 10 ng/ml, 100 ng/ml, and 1000 ng/ml)”; in assay [5], “no binding (tested: 10 ng/ml, 100 ng/ml, and 1000 ng/ml)”; in assay [6], “no binding (tested: 10 ng/ml, 100 ng/ml, and 1000 ng/ml)”.

B2: AGEN1884w (antibody, human IgG1, kappa)
heavy: B1 heavy
light: B1 light with S109T
notes: Human IgG1; AGEN1884w-FortiCHO and AGEN1884w-PowerCHO are AGEN1884w produced in two growth media; the label used is kept in each row; also called AGEN1884w-FortiCHO
Consider B2, for which the binding result in assay [7] is reported as “no binding (tested: 0.00003 µg/ml to 10 µg/ml)”; in [8] it was “no binding (tested: 0.00003 µg/ml to 10 µg/ml)”; in assay [9], “binds”.
